In this assay the target is GTPase KRas (Homo sapiens) (UniProt P01116). Kind of assay: Covalent labelling of cysteine mutants by fragments, read by mass spectrometry (AID 2202238). Set-up: protein at 5 µM with 500 µM competing thiol for 1.5 h. The conditions noted are these: KRAS G12D cysteine mutants, disulfide tethering, MALDI-TOF labeling, stronger effect = higher value, fragment at 500 µM.
Where [1] appears, read: measured here: G75C mutant labeling.
[2] abbreviates: measured here: H94C mutant labeling.
Setting [3] is: measured here: I36C mutant labeling.
The mark [4] stands for this setting: measured here: L120C mutant labeling.
Where [5] appears, read: measured here: M67C mutant labeling.
Setting [6] is: measured here: M72C mutant labeling.
[7] abbreviates: measured here: N86C mutant labeling.
[8] abbreviates: measured here: P121C mutant labeling.
[9] abbreviates: measured here: S122C mutant labeling.
[10] abbreviates: measured here: S136C mutant labeling.
Setting [11] is: measured here: G60C mutant labeling.
[12] abbreviates: measured here: N26C mutant labeling.

Molecules are shown by their SMILES. The list shows a part of the results. These are further read-outs of the screen, such as a control signal, another cell line or another target. No call is given for them.

Chain of UniProt P01116 (P01116 whole entry, looked up, the tested form may be a part): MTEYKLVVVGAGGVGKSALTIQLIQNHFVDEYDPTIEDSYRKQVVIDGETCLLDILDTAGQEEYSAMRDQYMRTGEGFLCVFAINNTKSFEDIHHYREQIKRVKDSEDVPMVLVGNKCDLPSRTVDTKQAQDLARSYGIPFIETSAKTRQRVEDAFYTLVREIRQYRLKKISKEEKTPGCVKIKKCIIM

As for `O=C(CCS)Nc1ccc(OCc2ccccc2)nc1`, the percent labeling came out at 4.5% under setting [1]; 6.9% under setting [2]; 17.5% under setting [3]; 12.2% under setting [4]; 26.6% under setting [5]; 22.1% under setting [6]. The percent labeling reads like this: under setting [7], 4.6%; under setting [8], 10%; under setting [9], 10.3%; under setting [10], 17.5%.
`CC(Cn1cnc2c(cnn2C)c1=O)NC(=O)CCS` (centres undefined): the percent labeling was 6.9% under setting [1]; 29% under setting [2]; 41.1% under setting [3]; 24.8% under setting [4]; 42.5% under setting [5]; 11.6% under setting [6]. Moreover, the percent labeling runs as follows: under setting [7], 25%; under setting [8], 38.4%; under setting [9], 30%; under setting [10], 50.2%.
With `CCc1nc2nccc(C(=O)NCCS)c2[nH]1`, the percent labeling under setting [11] is 19.6%; the percent labeling under setting [1] was found to be 19.4%; the percent labeling under setting [2] is 19.4%; the percent labeling under setting [3] is 17%; the percent labeling under setting [4] was 14%; the percent labeling under setting [5] amounted to 25.4%. In addition, the percent labeling came to 32.5% under setting [6]; 34% under setting [12]; 11.1% under setting [7]; 9.3% under setting [8]; 10.7% under setting [9]; 36% under setting [10].
Take `O=C(CCS)NCc1cccc(C(F)F)c1`: the percent labeling is 18.7% under setting [1]; 38.9% under setting [2]; 40.9% under setting [3]; 26.1% under setting [4]; 38.5% under setting [5]; 35.2% under setting [6]. Besides, the percent labeling reads like this: under setting [7], 34%; under setting [8], 34%; under setting [9], 33.9%; under setting [10], 49.9%.
Regarding `O=C(NCCS)c1ncn2cc(Cl)ccc12`, the percent labeling runs as follows: under setting [11], 17.2%; under setting [1], 16.6%; under setting [2], 24.5%; under setting [3], 13.1%; under setting [4], 32.1%; under setting [5], 10.3%. Also, the percent labeling runs as follows: under setting [6], 38.7%; under setting [12], 28.1%; under setting [7], 8.3%; under setting [8], 22.5%; under setting [9], 12%; under setting [10], 31%.
On to `Cc1nn(C)c2ncc(NC(=O)CCS)cc12`, for which the percent labeling runs as follows: under setting [1], 13%; under setting [2], 21.2%; under setting [3], 21.3%; under setting [4], 23.4%; under setting [5], 20.3%; under setting [6], 34.5%. In addition, the percent labeling reads like this: under setting [7], 18.2%; under setting [8], 21.4%; under setting [9], 17.9%; under setting [10], 41.7%.
`O=C(CCS)Nc1ccc(-c2ccccc2)cc1F`: the percent labeling runs as follows: under setting [1], 6.1%; under setting [2], 13.5%; under setting [3], 30.5%; under setting [4], 15.5%; under setting [5], 11.4%; under setting [6], 60.4%. For the same compound, the percent labeling is, setting by setting: under setting [7], 21.8%; under setting [8], 14.2%; under setting [9], 12%; under setting [10], 39.5%.
For `Cc1[nH]cnc1C(=O)NCCS`, the percent labeling reads like this: under setting [11], 0%; under setting [1], 0%; under setting [2], 4.7%; under setting [3], 6.1%; under setting [4], 6.7%; under setting [5], 6.1%. The percent labeling was found to be 4% under setting [6]; 6.4% under setting [12]; 3.7% under setting [7]; 4% under setting [8]; 5.6% under setting [9]; 8.9% under setting [10].
`CC1(C)CCc2onc(C(=O)NCCS)c2C1`: the percent labeling under setting [11] worked out at 27.8%; the percent labeling under setting [1] turned out to be 17%; the percent labeling under setting [2] came to 24.4%; the percent labeling under setting [3] amounted to 13.3%; the percent labeling under setting [4] came to 22.4%; the percent labeling under setting [5] was 12.2%. The percent labeling by setting is: under setting [6], 57.7%; under setting [12], 27.3%; under setting [7], 13.7%; under setting [8], 15.1%; under setting [9], 11.8%; under setting [10], 30.1%.
`O=C(NCCS)C1CCCN1c1ncnc2ccccc12` (centres undefined) came in with a percent labeling under setting [11] of 34.8%; a percent labeling under setting [1] of 12.9%; a percent labeling under setting [2] of 32.1%; a percent labeling under setting [3] of 31.8%; a percent labeling under setting [4] of 37.2%; a percent labeling under setting [5] of 32.8%. For the same compound, the percent labeling was found to be 28% under setting [6]; 38.9% under setting [12]; 26.6% under setting [7]; 27% under setting [8]; 23.3% under setting [9]; 36.8% under setting [10].
As to `O=C(CCS)NCc1cccc(OCc2ccccc2)c1`, the percent labeling runs as follows: under setting [1], 8.2%; under setting [2], 19.4%; under setting [3], 20.9%; under setting [4], 14%; under setting [5], 20.6%; under setting [6], 30.4%. For the same compound, the percent labeling under setting [7] came out at 15.6%, the percent labeling under setting [8] was determined as 14.2%, the percent labeling under setting [9] turned out to be 15% and the percent labeling under setting [10] was 25.6%.
Consider `Cn1cnc(-c2ccc(C(=O)NCCS)cc2)n1`, for which the percent labeling under setting [11] was 26%; the percent labeling under setting [1] is 15.1%; the percent labeling under setting [2] is 21.5%; the percent labeling under setting [3] is 19.1%; the percent labeling under setting [4] was found to be 23.2%; the percent labeling under setting [5] turned out to be 26.5%. Besides, the percent labeling under setting [6] worked out at 34.1%; the percent labeling under setting [12] was 44.8%; the percent labeling under setting [7] was determined as 33.8%; the percent labeling under setting [8] was 19.2%; the percent labeling under setting [9] is 25%; the percent labeling under setting [10] is 34.2%.
As for `O=C(NCCS)c1ccc(-c2csnn2)cc1`, the percent labeling reads like this: under setting [11], 6.1%; under setting [1], 5.7%; under setting [2], 6.1%; under setting [3], 5.7%; under setting [4], 0%; under setting [5], 5.4%. Further, the percent labeling reads like this: under setting [6], 34.4%; under setting [12], 19%; under setting [7], 0%; under setting [8], 0%; under setting [9], 11.4%; under setting [10], 12.8%.

The record behind these values is PubChem BioAssay AID2202238 (Ras Initiative Chemistry Research Team, Frederick National …, 2025).
